Laboratory results: PubChem BioAssay AID686979 (National Center for Advancing Translational Sciences (NCATS), 2013)
In all, about 420,000 compounds went through this assay and about 50,000 (12%) were called active. Inconclusive means that the source gave no clear call. Such entries were picked first, then a sample of the others. Calls follow the shape of the dose curve; as a rule, active = well fitted inhibition curve with a large enough effect; inconclusive = small, poorly fitted or top-dose-only effect; inactive = flat fitted curve, though single readings scatter. Potencies of inconclusive entries are left out as doubtful fits.

Test: qHTS for Inhibitors of human tyrosyl-DNA phosphodiesterase 1 (TDP1): qHTS in cells in presence of CPT; also: nearly all actives have a fitted effect of over 55% in size
Conditions: chicken DT40 Tdp1-/-;hTDP1 cells + 20 nM CPT, ATP luminescence, 48 h; activity change, negative = growth inhibition: at 46.2 µM (top of the series)
Outline: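 Chicken DT40 Tdp1-/- cells complemented with human TDP1, 400 cells/well, exposed to compounds plus 20 nM camptothecin for at least 48 h at 37 C; viability read as ATP content by CellTiter-Glo luminescence.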
% is scaled to controls: 0 for no effect and ±100 for the full control effect; potency is read from the fitted curve at half-maximal effect; tags tell the direction and shape of the fitted curve.

Row | SMILES | Potency | activity change, negative = growth inhibition
1 | COc1cc(OC)cc(C(=O)Nc2ccc(C(=O)Nc3ccccc3OC)cc2)c1 | inconclusive [inhibitor, single point] | 
2 | CC(=O)N1CCN(c2ccc(NC(=S)NC(=O)COc3ccc(C(C)(C)C)cc3)cc2)CC1 | inconclusive [inhibitor, single point] | 
3 | Cc1cc(NS(=O)(=O)c2ccc3oc(=O)c4ncn(C)c4c3c2)ccc1Br | inconclusive [inhibitor, partial curve] | 
4 | CC(=O)NC(CC(=O)OCC(=O)Nc1cc(S(=O)(=O)N2CCCCC2)ccc1C)c1ccccc1 (stereo not given) | inconclusive [inhibitor, single point] | 
5 | CCOc1ccccc1N(CC(=O)NCC1CCCO1)C(=O)CNS(=O)(=O)c1ccccc1 (stereo not given) |  | inactive: 21.9%
6 | Nc1c(C(=O)NCCN2CCOCC2)c2nc3ccccc3nc2n1-c1ccccc1 | inconclusive [inhibitor, single point] | 
7 | CC1=NN(C(N)=S)C(=O)C1N=Nc1c(C)cc(C)cc1C (stereo not given) | active: 0.517 µM | 
8 | Cc1ccc(S(=O)(=O)N2CCN(C(=O)C3CCCC3)CC2)cc1C | inconclusive [inhibitor, partial curve] | 
9 | CSc1nc(SCC(=O)O)c2sc3nc(-c4ccccc4)c4c(c3c2n1)CCC4 |  | inactive: -2.66%
10 | CCCCNC(=O)[C@@H]1Cc2ccccc2N1C(=O)[C@H](N)CC |  | inactive: -10.9%
11 | Cn1c(=O)[nH]c(=O)c2c1nc(NCCCn1ccnc1)n2Cc1ccccc1 | inconclusive [inhibitor, full curve, poor fit] | 
12 | CC(=O)NCC(c1cccs1)S(=O)(=O)c1ccc(F)cc1 (stereo not given) |  | inactive: 1.98%
13 | COc1ccc(-c2c(C)oc3c(CN4CCCCC4C)c(O)ccc3c2=O)cc1OC (stereo not given) |  | inconclusive: -31.9% [inhibitor]
14 | O=C(c1ccc(NC(=S)NCc2ccc(Cl)cc2)cc1)N1CCCCC1 | inconclusive [inhibitor, single point] | 
15 | Cc1cc(C)n2nc(SC(C)C(=O)N(C)c3ccccc3)nc2n1 (stereo not given) |  | inactive: -28.7%
16 | COc1ccc(NC(=O)c2cc(=O)[nH]c(=O)[nH]2)cc1S(=O)(=O)Nc1ccccc1Cl |  | inactive: -23.7%
17 | CCc1ccc(CN2CCCC(CCC(=O)N3CCN(c4ccccn4)CC3)C2)o1 (stereo not given) | inconclusive [inhibitor, single point] | 
18 | O=C(/C=C/c1ccccc1Cl)Nc1nc(-c2cccs2)ns1 | inconclusive [inhibitor, single point] | 
19 | Cc1ccc(CSCC(=O)N(C)CC(=O)Nc2ccc(Br)cc2C)cc1 | inconclusive [inhibitor, single point] | 
20 | O=C(Cn1cc(SCc2c(F)cccc2Cl)c2ccccc21)N1CCCC1 | inconclusive [inhibitor, single point] | 
21 | O=C(Cn1[nH]c(=O)c2ccccc2c1=O)N1CC=C(c2ccccc2)CC1 | active: 11.2 µM | 
22 | CCc1nc2ccc(C(=O)NCc3ccc(OC)cc3)cn2c1N(C)CCC(C)C | inconclusive [inhibitor, single point] | 
23 | Cc1[nH]c2ccccc2c1SCC(=O)N1CCCc2ccccc21 | inconclusive [inhibitor, single point] | 
24 | COc1cccc(CNC(=O)C(C)n2c(=O)cc(-c3ccccc3)c3c(C)nn(C)c32)c1 (stereo not given) | inconclusive [inhibitor, single point] | 

Row | SMILES | Potency | activity change, negative = growth inhibition
25 | Cc1nc2ccn(Cc3ccco3)c(=O)c2cc1C(=O)N1CCN(c2ccc(F)cc2)CC1 | inconclusive [inhibitor, single point] | 
26 | O=C(O)c1cccc(Nc2nc(N3CCOCC3)nc(N3CCOCC3)n2)c1 |  | inconclusive: -33% [inhibitor]
27 | O=C(N/N=C/c1cccc(O)c1)c1csc2ccccc12 | inconclusive [inhibitor, full curve] | 
28 | CC(C)NC(=O)N(C)C[C@H]1Oc2c(NS(=O)(=O)c3cccs3)cccc2C(=O)N([C@H](C)CO)C[C@@H]1C | inconclusive [inhibitor, single point] | 
29 | CCN(CC)CCCn1c(=S)[nH]c2cc(Cl)ccc2c1=O |  | inactive: -22.3%
30 | COc1cc(NC(=S)NNC(=O)C(C)(C)O)cc(OC)c1 |  | inactive: -6.69%
31 | COC(=O)c1cccc(NC(=O)CN2CCC(NC(=O)c3cc(OC)c(OC)c(OC)c3)CC2)c1 | inconclusive [inhibitor, single point] | 
32 | CC(C)Nc1ccc(C(CC(N)=O)NC(=O)c2ccc(Br)cc2)cc1[N+](=O)[O-] (stereo not given) | inconclusive [inhibitor, partial curve] | 
33 | O=C(CN1C(=O)C(=O)N(Cc2ccccc2)C1=O)Nc1cc(Cl)cc(Cl)c1 | inconclusive [inhibitor, single point] | 
34 | Nc1ccc2[nH]ncc2c1 | active: 18.4 µM | 
35 | CN(Cc1ccccc1)C(=O)CSc1nc(-c2ccc(F)cc2)cc(C(F)(F)F)n1 | active: 20.6 µM | 
36 | Cc1[nH]c2ccccc2c1C(=O)C(C)OC(=O)c1ccc(NC(=O)CC#N)cc1 (stereo not given) | inconclusive [inhibitor, single point] | 
37 | Cc1cccc(NC(=S)NCc2ccc3[nH]c4c(c3c2)CCCC4)c1 | active: 23.1 µM | 
38 | O=C(NCCc1ccccc1F)C1CC(=O)N(c2cccc(C(F)(F)F)c2)C1 (stereo not given) |  | inactive: -17.5%
39 | O=Cc1cn(CC(=O)N2CCCCC2)c2ccccc12 |  | inactive: -12.9%
40 | CCc1ccc(NC(=O)CCCN2C(=O)C3CC=CCC3C2=O)cc1 (stereo not given) |  | inactive: -16.5%
41 | C=Cc1ccc(CSc2cc(C)nc3nc(C)nn23)cc1 | inconclusive [inhibitor, partial curve] | 
42 | Cc1ccccc1/C=N/Nc1nc2ccccc2[nH]1 | inconclusive [inhibitor, single point] | 
43 | Cc1ccc(Sc2c([N+](=O)[O-])c(C)nn2C)cc1 |  | inactive: 12.8%
44 | Cc1nc(Nc2ccccc2)[nH]c(=O)c1CCC(C)C | active: 7.31 µM | 
45 | CCn1ncc(Br)c1C(=O)Nc1cc(C)ccc1F | inconclusive [inhibitor, single point] | 
46 | CCCC(CCC)C(=O)NC1CC(=O)N(c2ccc3c(c2)OCCO3)C1 (stereo not given) |  | inactive: -8.81%
47 | CCC1(CC)Cc2ccccc2-c2nc(CN3CCOCC3)[nH]c(=O)c21 | inconclusive [inhibitor, partial curve] | 
48 | O=C(Nc1nnc(S(=O)(=O)N2CCc3ccccc32)s1)c1cccc(Cl)c1 | active: 20.6 µM | 

Row | SMILES | Potency | activity change, negative = growth inhibition
49 | Cc1ccc(S(=O)(=O)Nc2ccc3[nH]ccc3c2)cc1 | inconclusive [inhibitor, partial curve, poor fit] | 
50 | COc1ccccc1-n1c(SCC(=O)NCc2ccc3c(c2)OCO3)nc2cc([N+](=O)[O-])ccc21 | active: 4.11 µM | 
51 | COc1ccc(F)cc1-c1cc(C(=O)N2CCc3ccccc3C2)[nH]n1 | inconclusive [inhibitor, single point] | 
52 | COc1ccc(CCNc2c3ccccc3nc3ccccc23)cc1OC | inconclusive [inhibitor, single point] | 
53 | CN(Cc1ccccc1)S(=O)(=O)c1ccc(C(=O)Nc2nnc(C3CC3)o2)cc1 | active: 14.6 µM | 
54 | C=CCN(c1ccccc1OC)S(=O)(=O)c1cccc(C(=O)OCC(=O)c2c[nH]c3ccccc23)c1 | inconclusive [inhibitor, single point] | 
55 | CCc1ccccc1NC(=O)Cn1c(=O)n(Cc2ccc(OC)cc2)c(=O)c2oc3ccccc3c21 | active: 9.2 µM | 
56 | COc1ccccc1N1CCN(C(=O)c2ccc3[nH]c4c(c3c2)CC(C)CC4)CC1 (stereo not given) | active: 16.4 µM | 
57 | Cn1c(N)c(C(=O)CSc2nnc(NC3CCCCC3)s2)c(=O)n(C)c1=O | inconclusive [inhibitor, single point] | 
58 | COCCOC(=O)c1c(-c2ccccc2)c(-c2ccccc2)nn(C)c1=O | inconclusive [inhibitor, single point] | 
59 | CC(C)(CNC(=O)c1cnn(-c2nccc(-c3cc4ccccc4o3)n2)c1C1CC1)N1CCOCC1 |  | inactive: -8.08% [at 9.04 µM]
60 | COc1ccc(NS(=O)(=O)c2cccc(NC(=O)NC3CCCCC3)c2)cc1 | inconclusive [inhibitor, single point] | 
61 | COc1ccccc1/C=C(/NC(=O)c1ccccc1)C(=O)NCCCn1ccnc1 | inconclusive [inhibitor, single point] | 
62 | CCN(C(=O)C1CCCN(c2nc(-c3ccc(OC)cc3)no2)C1)c1ccccc1F (stereo not given) | inconclusive [inhibitor, single point] | 
63 | COc1ccccc1N1CCN(S(=O)(=O)CCNC(=O)COc2ccccc2)CC1 | inconclusive [inhibitor, single point] | 
64 | COc1ccc(NC(=O)C2CCCN(c3nnc(C)c4c(C)n(-c5ccccc5)nc34)C2)cc1Cl (stereo not given) | active: 10.3 µM | 
65 | Cc1ccc[n+](-c2nc([O-])sc2/C=N/Nc2ccc([N+](=O)[O-])cc2)c1 |  | inconclusive: -38.7% [inhibitor]
66 | COc1cc(C)nc(Oc2ccc(OCc3ccccc3)nn2)n1 |  | inactive: -22.1%
67 | O=C(CSc1nc(-c2ccc(F)cc2)[nH]c1-c1ccc(F)cc1)Nc1ccc2c(c1)OCCO2 | active: 10.3 µM | 
68 | Cc1ccc(C(=O)OCC(=O)c2c[nH]c3ccccc23)cc1S(=O)(=O)N1CCCCC1 | active: 23.1 µM | 
69 | CCc1noc(C)c1C(=O)N1CCSC1=Nc1cccc(Cl)c1C | inconclusive [inhibitor, partial curve] | 
70 | CCN(C(=O)CCS(=O)(=O)c1cccc2nonc12)c1ccc(C)c(C)c1 | inconclusive [inhibitor, single point] | 
